The text below walks through data of article PMC4336329 (PLoS ONE, 2015).

About 2,200 (0.71%) of roughly 310,000 compounds showed an effect of 50% or more. The effect is printed as a negative number. The list shows a part of the results.

The target of the test is human ether-à-go-go-related gene (hERG) potassium channel (human, UniProt Q12809). Kind of test: primary screen, population patch clamp on CHO cells stably expressing hERG.
human ether-à-go-go-related gene (hERG) potassium channel, sequence (Q12809 whole entry, looked up): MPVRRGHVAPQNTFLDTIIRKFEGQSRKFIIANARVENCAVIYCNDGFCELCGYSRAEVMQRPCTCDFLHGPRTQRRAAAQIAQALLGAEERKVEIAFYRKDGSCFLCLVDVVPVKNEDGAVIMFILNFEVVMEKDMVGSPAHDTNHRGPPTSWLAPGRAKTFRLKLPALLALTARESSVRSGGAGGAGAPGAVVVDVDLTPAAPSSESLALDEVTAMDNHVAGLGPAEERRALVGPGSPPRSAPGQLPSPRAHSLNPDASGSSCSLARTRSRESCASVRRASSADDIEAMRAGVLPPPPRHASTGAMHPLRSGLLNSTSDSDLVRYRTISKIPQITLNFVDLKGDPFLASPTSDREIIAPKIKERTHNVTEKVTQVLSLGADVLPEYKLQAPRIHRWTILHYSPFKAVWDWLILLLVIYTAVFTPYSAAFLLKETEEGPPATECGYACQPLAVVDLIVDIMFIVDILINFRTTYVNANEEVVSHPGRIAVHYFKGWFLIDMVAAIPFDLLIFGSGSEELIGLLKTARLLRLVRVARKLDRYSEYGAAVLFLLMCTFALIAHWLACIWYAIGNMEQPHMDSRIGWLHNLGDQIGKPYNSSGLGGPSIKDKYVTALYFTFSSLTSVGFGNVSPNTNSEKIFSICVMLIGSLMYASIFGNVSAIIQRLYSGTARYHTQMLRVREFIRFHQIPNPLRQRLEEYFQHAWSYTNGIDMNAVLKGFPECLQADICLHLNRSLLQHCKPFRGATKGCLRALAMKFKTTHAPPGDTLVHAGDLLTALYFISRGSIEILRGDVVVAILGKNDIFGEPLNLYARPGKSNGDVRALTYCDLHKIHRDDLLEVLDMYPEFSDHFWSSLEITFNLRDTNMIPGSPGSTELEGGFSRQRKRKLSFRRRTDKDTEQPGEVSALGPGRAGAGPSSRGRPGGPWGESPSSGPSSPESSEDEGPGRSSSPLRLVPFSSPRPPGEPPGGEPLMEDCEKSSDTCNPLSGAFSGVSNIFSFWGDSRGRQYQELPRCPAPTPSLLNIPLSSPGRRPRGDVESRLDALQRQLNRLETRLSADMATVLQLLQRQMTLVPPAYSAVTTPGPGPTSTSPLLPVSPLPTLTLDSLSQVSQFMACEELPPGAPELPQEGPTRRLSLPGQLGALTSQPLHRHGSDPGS
Take `Cc1cc2c(c(=O)n1CC1CCCO1)C(c1ccc3c(c1)OCO3)C(C#N)=C(N)O2` (stereo not drawn): the “hERG current change (%, negative = inhibition) at 1uM” value is -3.61%.

Consider `O=C(O)CCn1cc(/C=C/C(=O)c2ccc(Cl)cc2)c(-c2cccc(Br)c2)n1`, for which the “hERG current change (%, negative = inhibition) at 1uM” value was determined as 14.7%. Next, `CCc1ccccc1Nc1nc(N)nc(COC(=O)CCS(=O)(=O)c2ccccc2)n1`: 2.48%; `N#C/C(=C/c1cccs1)c1nc2ccccc2[nH]1`: 4.74%; `C[n+]1ccn(CC(=O)c2cc(C(C)(C)C)c(O)c(C(C)(C)C)c2)c1.[Br-]`: 19%. As to `CN(C)c1ccc(C(CNS(=O)(=O)c2ccc([N+](=O)[O-])cc2)N2CCOCC2)cc1` (stereo not drawn), the “hERG current change (%, negative = inhibition) at 1uM” value was -2.98%.

Take `Cc1nn(Cc2c(Cl)cccc2Cl)c(Cl)c1C(=O)O`: the “hERG current change (%, negative = inhibition) at 1uM” value is listed as 11.1%. `COc1ccc(S(=O)(=O)NCCCN2CCCC2=O)c(OC)c1`: the “hERG current change (%, negative = inhibition) at 1uM” value was found to be 8.09%. Take `COC(=O)C1(c2ccccc2)NC(c2cccs2)C2C(=O)N(C)C(=O)C21` (stereo not drawn): the “hERG current change (%, negative = inhibition) at 1uM” value is recorded as -2.17%.

Take `O=C(Nc1ccc(S(=O)(=O)NC2=NCCCCC2)cc1)C1COc2ccccc2O1` (stereo not drawn): the “hERG current change (%, negative = inhibition) at 1uM” value is 15.5%. For the compound `Cc1ccccc1Nc1ncnc2c1cnn2C`, the “hERG current change (%, negative = inhibition) at 1uM” value is given as 8.93%. In the case of `O=C(N/N=C/c1cccnc1)c1ccc(CN2c3cccc4cccc(c34)S2(=O)=O)cc1`, the “hERG current change (%, negative = inhibition) at 1uM” value was determined as 13.6%. With `O=[N+]([O-])c1cc(/C=N/Nc2nc(N3CCOCC3)nc(N3CCOCC3)n2)ccc1Cl`, the “hERG current change (%, negative = inhibition) at 1uM” value turned out to be 9.23%. As to `Cc1ccc(NC(=O)CN(C)C(=O)COC(=O)CCS(=O)(=O)c2ccc(C)cc2)cc1`, the “hERG current change (%, negative = inhibition) at 1uM” value turned out to be 6.79%. As for `COc1cccc(-c2ccc(NC(=O)C3CCCN(Cc4ccc(CO)o4)C3)cc2)c1` (stereo not drawn), the “hERG current change (%, negative = inhibition) at 1uM” value was found to be 6.28%. For the compound `Cc1cccc(CC(=O)NC2CCS(=O)(=O)C2)c1` (stereo not drawn), the “hERG current change (%, negative = inhibition) at 1uM” value is given as 0.686%. Regarding `Cc1ccc(NS(=O)(=O)c2cc(-c3cc(C)no3)ccc2C(C)C)nc1`, the “hERG current change (%, negative = inhibition) at 1uM” value is 12.2%. Take `O=C(Nc1ccc(S(=O)(=O)Nc2ncccn2)cc1)c1ccc(Br)s1`: the “hERG current change (%, negative = inhibition) at 1uM” value worked out at 5.42%. With `COc1ccc(-c2cc(C(=O)Nc3cc(Br)ccc3O)no2)cc1`, the “hERG current change (%, negative = inhibition) at 1uM” value was 10.3%. As to `CCN(CC)c1nc2n(c(=O)n1)CCN2CC`, the “hERG current change (%, negative = inhibition) at 1uM” value is given as 6.01%. As to `CCOC(=O)CCSc1nc(C(C)(C)C)cc(C(F)(F)F)c1C#N`, the “hERG current change (%, negative = inhibition) at 1uM” value is 12%.

With `CCOC(=O)CNC(=O)C1COc2ccccc2O1` (stereo not drawn), the “hERG current change (%, negative = inhibition) at 1uM” value was 10.4%. For `O=C(O)c1ccc(Cl)c(S(=O)(=O)Nc2ccc3[nH]c(=O)[nH]c3c2)c1`, the “hERG current change (%, negative = inhibition) at 1uM” value is reported as 9.72%. Next, `CCOCCCn1c(=S)[nH]c2cc(C(=O)N3CCN(C4CCCCC4)CC3)ccc2c1=O`: 10.4%; `CCOC(=O)CSc1nc2cc(S(=O)(=O)Nc3ccccc3OC)ccc2o1`: -3.83%. For `COc1ccc(NC(=O)COC(=O)c2ccc(Br)o2)cc1OC`, the “hERG current change (%, negative = inhibition) at 1uM” value worked out at 16.6%. With `COCCn1c(NCc2ccccc2)nc2c1c(=O)[nH]c(=O)n2C`, the “hERG current change (%, negative = inhibition) at 1uM” value is listed as 9.98%. Next, `O=C(O)CC(SCc1ccc(C(=O)O)o1)C(=O)O` (stereo not drawn): 11.8%; `Cc1coc2c1c(C)cc1oc(=O)c(CC(=O)NCC(=O)NCC(=O)O)c(C)c12`: 10.4%; `N#C/C(=C\c1ccc(Oc2ccc(C(F)(F)F)cc2[N+](=O)[O-])cc1)c1nc2ccccc2[nH]1`: 11%. For the compound `COC(=O)c1ccc(NC(=O)c2nc(S(=O)(=O)Cc3cccc(C)c3)ncc2Cl)cc1`, the “hERG current change (%, negative = inhibition) at 1uM” value is listed as 17.2%.

As for `CCC(C)NC(=O)c1ccc(COc2ccccc2Cl)cc1` (stereo not drawn), the “hERG current change (%, negative = inhibition) at 1uM” value is -7.71%. For `O=C(Cc1ccccc1)NCc1ccccn1`, the “hERG current change (%, negative = inhibition) at 1uM” value turned out to be 10.4%. With `COc1cccc(N2C(N)=NC(N)=NC2(C)C)c1.Cl`, the “hERG current change (%, negative = inhibition) at 1uM” value amounted to 12.7%. With `C/C(=N\NC(=O)c1ccncc1)c1cccs1` the figure was 5.93%; with `CN(C)c1ccc(NC(=O)/C=C/c2ccccc2Cl)cc1`, 5.27%; with `N#Cc1ccc(Oc2ccc(C(F)(F)F)cc2NC(=O)c2ccc(F)cc2)cc1`, -27.4%. On to `O=C(NCCC(=O)N1CCCCC1)c1ccccc1Cl`, for which the “hERG current change (%, negative = inhibition) at 1uM” value was -22.9%. Turning to `N#Cc1nnn2c1nc(N)c1c(F)cccc12`, the “hERG current change (%, negative = inhibition) at 1uM” value came out at 18.1%. Next, `CCOc1ccc(N(CC)C(=O)COc2cc(=O)n(C)c3ccccc23)cc1`: -6.46%; `CCNC(=S)Nc1ccc2ncoc2c1`: 13.5%.

Take `CCN(CC)C(=O)C(=O)c1cn(CCOc2ccccc2)c2ccccc12`: the “hERG current change (%, negative = inhibition) at 1uM” value was found to be 12.5%. Consider `O=C(N/N=C/c1cccn1-c1ccc([N+](=O)[O-])cc1)C(O)c1ccccc1` (stereo not drawn), for which the “hERG current change (%, negative = inhibition) at 1uM” value was -0.277%. On to `COCCNC(=S)NNc1cccc(C(=O)O)c1`, for which the “hERG current change (%, negative = inhibition) at 1uM” value is on record as 3.81%.

Consider `COc1ccc(NC(=S)NCc2ccc(Cl)cc2)c(OC)c1`, for which the “hERG current change (%, negative = inhibition) at 1uM” value came to 18%. For the compound `CC1Cc2ccccc2N1C(=O)CO/N=C/c1ccccc1OC(F)F` (stereo not drawn), the “hERG current change (%, negative = inhibition) at 1uM” value came to 9.05%. Turning to `CCCNc1nc(C)cc(-c2cc(C(=O)NCc3ccccc3)on2)n1`, the “hERG current change (%, negative = inhibition) at 1uM” value turned out to be 12%. Next, `CCCC(=O)Nc1ccc(N2CCN(CC)CC2)c(Cl)c1.Cl`: -17.9%; `Cc1cc(C)nc(SCc2cc(=O)c(OC(=O)c3ccc(S(=O)(=O)N4CCCC4)cc3)co2)n1`: -0.0435%; `Cc1noc(C)c1C(=O)Nc1cccc2ncccc12`: 10.7%. For `Cc1cccc(C(O)(C(=O)NNc2ccc3ccccc3[nH+]2)c2cccc(C)c2)c1.[Cl-]`, the “hERG current change (%, negative = inhibition) at 1uM” value was determined as 13.3%. With `CC1=CC2=NC(=O)/C(=C\c3ccc(OC(=O)c4ccco4)cc3)C(=N)N2O1` the figure was 6.29%; with `CCCOC(=O)CSc1nnc(-c2ccc(Cl)cc2Cl)o1`, 11.4%; with `C[C@@H](C(=O)Nc1ccc2ccccc2c1)[C@@H]1C[C@@]1(C)[C@@H](NC(=O)c1cnccn1)c1ccccc1`, 5.58%.

With `COc1cccc(/C=C/C(=O)OCC(=O)Nc2ccccc2Sc2ccccc2)c1`, the “hERG current change (%, negative = inhibition) at 1uM” value is recorded as 11.8%.

Take `CCOC(=O)c1[nH]c2ccc(OC)cc2c1NC(=O)c1ccc(OC)c(OC)c1`: the “hERG current change (%, negative = inhibition) at 1uM” value is on record as -1.13%. As to `NC(=O)CNc1ncc(C(F)(F)F)cc1Cl`, the “hERG current change (%, negative = inhibition) at 1uM” value is given as 19.6%. Consider `Cc1cccc(C)c1-n1c(SCC(=O)N2CC(=O)Nc3ccccc32)nc2ccccc2c1=O`, for which the “hERG current change (%, negative = inhibition) at 1uM” value turned out to be 8.07%. On to `Clc1ccccc1CSc1nnc(-c2ccncc2)o1`, for which the “hERG current change (%, negative = inhibition) at 1uM” value is given as 2.5%.

For `S=C(Nc1ccc(Cl)cc1)N1CCOCC1`, the “hERG current change (%, negative = inhibition) at 1uM” value turned out to be 4.65%.

For `CC1Nc2ncnc(N3CCc4ccccc4C3)c2N(Cc2ccc(Br)cc2)C1=O.O=C(O)C(F)(F)F` (stereo not drawn), the “hERG current change (%, negative = inhibition) at 1uM” value was found to be 13.8%. As for `COc1cccc(C(=O)N(CN2CCCC2=O)c2cccc(Cl)c2)c1OC`, the “hERG current change (%, negative = inhibition) at 1uM” value turned out to be 3.75%.

In the case of `O=C(c1ccccc1)N1CCN(CC#Cc2ccccc2)CC1`, the “hERG current change (%, negative = inhibition) at 1uM” value turned out to be 5.2%. For `CC(OC(=O)CSc1ccc([N+](=O)[O-])cc1)C(=O)NCc1ccco1` (stereo not drawn), the “hERG current change (%, negative = inhibition) at 1uM” value turned out to be 12.6%. In the case of `CC(=O)Nc1ccc(NS(=O)(=O)c2ccccc2)c2ccccc12`, the “hERG current change (%, negative = inhibition) at 1uM” value was found to be 17.6%. Consider `CC1(C)CC(=O)C2=C(C1)NC(=O)NC2c1ccccc1Cl` (stereo not drawn), for which the “hERG current change (%, negative = inhibition) at 1uM” value turned out to be 14.7%.

For the compound `Cn1cccc1Cc1nnc(SCC(=O)Nc2ccc3c(c2)OCO3)n1CCc1ccccc1`, the “hERG current change (%, negative = inhibition) at 1uM” value was 4.99%. As to `COc1ccccc1C1CCN(Cc2ccc3ccccc3c2)CC1`, the “hERG current change (%, negative = inhibition) at 1uM” value is -6.37%. On to `CCN(C(=O)CN1CCN(c2ccccc2)CC1)c1c(N)n(Cc2ccccc2)c(=O)[nH]c1=O`, for which the “hERG current change (%, negative = inhibition) at 1uM” value was determined as 7.07%.

Regarding `O=C(c1ccccc1)c1ccc2nc(Nc3ccccc3)c3nncn3c2c1`, the “hERG current change (%, negative = inhibition) at 1uM” value came to 4.24%. With `O=C1NC(NS(=O)(=O)c2ccc(Cl)cc2)(C(F)(F)F)C(=O)N1CCc1ccccc1` (stereo not drawn) the figure was 14.7%; with `CCCCC(c1nnnn1C1CCCC1)N1CCN(C2CCCC2)CC1.Cl` (stereo not drawn), -82%; with `CC(C)Cn1nc(NC(=O)c2cccs2)c2cc3ccccc3nc21`, 12%. `O=C(NCCc1ccccc1)C1CCCN(S(=O)(=O)c2cnc[nH]2)C1` (stereo not drawn): the “hERG current change (%, negative = inhibition) at 1uM” value is recorded as 5.03%. As for `COc1cccc(Cn2cccc(NC(=O)NC3CCCCC3)c2=O)c1`, the “hERG current change (%, negative = inhibition) at 1uM” value is 11.2%. For `COc1ccc(-c2sc(NC(=O)c3ccc(C)cc3)nc2-c2ccc([N+](=O)[O-])cc2)cc1`, the “hERG current change (%, negative = inhibition) at 1uM” value came to 6.45%. In the case of `CC(=O)Nc1ccccc1C(=O)OCC(=O)Nc1ncccn1`, the “hERG current change (%, negative = inhibition) at 1uM” value worked out at 12.1%. For `c1coc(C2Nc3ccccc3-c3nc4ccccc4n32)c1` (stereo not drawn), the “hERG current change (%, negative = inhibition) at 1uM” value is reported as 7.75%. As for `CCOc1ccc(NC(=O)c2ccccn2)cc1`, the “hERG current change (%, negative = inhibition) at 1uM” value turned out to be 5.69%. Take `CN(C(=O)Oc1ccc(Cl)c2cccnc12)c1ccccc1`: the “hERG current change (%, negative = inhibition) at 1uM” value was 7.25%.

For the compound `Cc1cccc(C(=O)NCC(=O)N2CCN(S(=O)(=O)/C=C/c3ccccc3)CC2)c1`, the “hERG current change (%, negative = inhibition) at 1uM” value was determined as 0.557%. In the case of `Cc1cc(C)cc(N(CC(=O)NCc2ccco2)C(=O)CCC(=O)Nc2nccs2)c1`, the “hERG current change (%, negative = inhibition) at 1uM” value came to 8.75%. Next, `COc1cc(C(=O)NC2CCN(CC(=O)NC3CCCCC3)CC2)cc(OC)c1OC`: 14.5%; `O=C(NCCc1ccc(Cl)cc1)c1cccnc1`: 9.38%; `CCOC(=O)/C=C(C)\C=C\c1c[nH]c2ccccc12`: 12.5%. Regarding `CSc1ccc(CN(C)CC(=O)NC(=O)NC(C)(C)C)cc1`, the “hERG current change (%, negative = inhibition) at 1uM” value amounted to 10.6%. Take `CS(=O)(=O)Nc1ccccc1C(=O)N1CCN(c2ccccc2)CC1`: the “hERG current change (%, negative = inhibition) at 1uM” value stood at 4.88%.
